{"source": "paper PMC6082832", "about": "“Effects of polymorphic variation on the thermostability of heterogenous populations of CYP3A4 and CYP2C9 enzymes in solution” (Scientific Reports, 2018)", "proteins": {"B1": {"name": "CYP3A4 wild-type, N-terminally truncated, His-tagged recombinant protein (enzyme, human, UniProt P08684 25-503, looked up)", "chain": "YGTHSHGLFKKLGIPGPTPLPFLGNILSYHKGFCMFDMECHKKYGKVWGFYDGQQPVLAITDPDMIKTVLVKECYSVFTNRRPFGPVGFMKSAISIAEDEEWKRLRSLLSPTFTSGKLKEMVPIIAQYGDVLVRNLRREAETGKPVTLKDVFGAYSMDVITSTSFGVNIDSLNNPQDPFVENTKKLLRFDFLDPFFLSITVFPFLIPILEVLNICVFPREVTNFLRKSVKRMKESRLEDTQKHRVDFLQLMIDSQNSKETESHKALSDLELVAQSIIFIFAGYETTSSVLSFIMYELATHPDVQQKLQEEIDAVLPNKAPPTYDTVLQMEYLDMVVNETLRLFPIAMRLERVCKKDVEINGMFIPKGVVVMIPSYALHRDPKYWTEPEKFLPERFSKKNKDNIDPYIYTPFGSGPRNCIGMRFALMNMKLALIRVLQNFSFKPCKETQIPLKLSLGGLLQPEKPVVLKVESRDGTVSGA", "modifications": "biotin on the BCCP tag (50 µM biotin added to facilitate biotinylation)", "notes": "cytochrome P450 3A4, human; Vector pBJW102.2 (pQE-80L with BCCP and a glycine-serine linker 3' to the His-6 tag); also called CYP3A4 WT; source: E. coli DH5α, purified (Protino Ni-TED His-tag purification)"}}, "target": "the molecule itself", "assay": "SEC; BioSep-SEC-S3000 column (5-700 kDa), room temperature, 0.5 ml/min, 100 mM potassium phosphate pH 7.4; 20 µl sample at ~2 mg/ml total protein; monitored at 410 nm; sizes estimated from the Bio-Rad gel filtration standard calibration curve", "data": [{"protein": "B1", "values": [{"measurement": "stoichiometry N", "value": "~9", "unit": "subunits"}]}]}
